# According to the supplement of paper PMC8728848:
# The list shows a part of the results.
# B1: HPAIIITrx (Helix pomatia), Q1KM18 (protein)
# chain: MLFVTIISLGLLAIVHGQCALKTIAFSAAIDREQTFDANQVVIYDIVITNHGNAYDNSTGLFTAPVDGMYSFQLNLLTIKEKEGWLELVHNGQLKVSVYAKQDSTYDSSSNSVIIKMKEGDRVNVRAHKKSGLFGRDDELYNTFSGHFLSGL
# Columns and labels:
# Assay in all cases: glycan array binding signal (z-score within array); higher = stronger binding
# Conditions in all cases: glycan notation: IUPAC condensed, linker removed
# [1] = target: Fuc(a1-3)[Gal(b1-4)]GlcNAc(b1-3)Gal(b1-4)[Fuc(a1-3)]GlcNAc(b1-3)Gal(b1-4)[Fuc(a1-3)]GlcNAc
# In short: (§1)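 Glycan array binding is given as a within-array Z-score, which can be read as non-binding when negative. The arrays, 3228 of them, came from the Consortium for Functional Glycomics database and were retained only where the protein sequence was available. Z-scores were averaged across arrays of the same protein sequence at different concentrations or buffers and across linkers.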
# [2] = target: Fuc(a1-3)[Gal(b1-4)]GlcNAc(b1-3)GalNAc
# In short: as §1
# [3] = target: Fuc(a1-3)[Gal(b1-4)]GlcNAc(b1-4)Gal(b1-4)[Fuc(a1-3)]GlcNAc
# In short: as §1
# [4] = target: Fuc(a1-3)[Gal(b1-4)]GlcNAc(b1-4)Gal(b1-4)[Fuc(a1-3)]GlcNAc(b1-4)Gal(b1-4)[Fuc(a1-3)]GlcNAc
# In short: as §1
# [5] = target: Fuc(a1-3)[Gal(b1-4)]GlcNAc(b1-6)GalNAc
# In short: as §1
# [6] = target: Fuc(a1-3)[Gal(b1-4)]GlcNAc(b1-6)[Gal(b1-3)GlcNAc(b1-3)]Gal(b1-4)Glc
# In short: as §1
# [7] = target: Fuc(a1-3)[Gal(b1-4)]GlcNAc6S
# In short: as §1
# [8] = target: Fuc(a1-3)[Gal3S(b1-4)]Glc
# In short: as §1
# [9] = target: Fuc(a1-3)[Gal3S(b1-4)]Glc6S
# In short: as §1
# [10] = target: Fuc(a1-3)[Gal3S(b1-4)]GlcNAc
# In short: as §1
# [11] = target: Fuc(a1-3)[Gal3S(b1-4)]GlcNAc6S
# In short: as §1
# [12] = target: Fuc(a1-3)[GalNAc(b1-4)]GlcNAc
# In short: as §1
# [13] = target: Fuc(a1-3)[GalNAc(b1-4)]GlcNAc6S
# In short: as §1
# [14] = target: Fuc(a1-3)[Neu5Ac(a2-3)]Gal(b1-4)GlcNAc(b1-3)GalNAc
# In short: as §1
# Fuc(a1-4)GlcNAc = target: Fuc(a1-4)GlcNAc
# In short: as §1
# Fuc(b1-3)GlcNAc = target: Fuc(b1-3)GlcNAc
# In short: as §1
# Gal(a1-2)Gal = target: Gal(a1-2)Gal
# In short: as §1
# Gal(a1-3)Gal = target: Gal(a1-3)Gal
# In short: as §1
# Gal(a1-3)Gal(b1-3)GlcNAc = target: Gal(a1-3)Gal(b1-3)GlcNAc
# In short: as §1
# [15] = target: Gal(a1-3)Gal(b1-3)GlcNAc(b1-2)Man
# In short: as §1
# [16] = target: Gal(a1-3)Gal(b1-3)GlcNAc(b1-2)Man(a1-3)[Gal(a1-3)Gal(b1-3)GlcNAc(b1-2)Man(a1-6)]Man(b1-4)GlcNAc(b1-4)GlcNAc
# In short: as §1
# [17] = target: Gal(a1-3)Gal(b1-3)GlcNAc(b1-3)GalNAc
# In short: as §1
# [18] = target: Gal(a1-3)Gal(b1-3)GlcNAc(b1-6)GalNAc
# In short: as §1
# [19] = target: Gal(a1-3)Gal(b1-3)[Fuc(a1-4)]GlcNAc(b1-2)Man(a1-3)[Gal(a1-3)Gal(b1-3)[Fuc(a1-4)]GlcNAc(b1-2)Man(a1-6)]Man(b1-4)GlcNAc(b1-4)GlcNAc
# In short: as §1
# Gal(a1-3)Gal(b1-4)Glc = target: Gal(a1-3)Gal(b1-4)Glc
# In short: as §1
# Gal(a1-3)Gal(b1-4)GlcNAc = target: Gal(a1-3)Gal(b1-4)GlcNAc
# In short: as §1
# [20] = target: Gal(a1-3)Gal(b1-4)GlcNAc(b1-2)Man
# In short: as §1
# [21] = target: Gal(a1-3)Gal(b1-4)GlcNAc(b1-2)Man(a1-3)[Gal(a1-3)Gal(b1-4)GlcNAc(b1-2)Man(a1-6)]Man(b1-4)GlcNAc(b1-4)GlcNAc
# In short: as §1
# [22] = target: Gal(a1-3)Gal(b1-4)GlcNAc(b1-3)GalNAc
# In short: as §1
# [23] = target: Gal(a1-3)Gal(b1-4)GlcNAc(b1-6)GalNAc
# In short: as §1
# [24] = target: Gal(a1-3)Gal(b1-4)[Fuc(a1-3)]GlcNAc
# In short: as §1
# [25] = target: Gal(a1-3)Gal(b1-4)[Fuc(a1-3)]GlcNAc(b1-2)Man(a1-3)[Gal(a1-3)Gal(b1-4)[Fuc(a1-3)]GlcNAc(b1-2)Man(a1-6)]Man(b1-4)GlcNAc(b1-4)GlcNAc
# In short: as §1
# Gal(a1-3)GalNAc = target: Gal(a1-3)GalNAc
# In short: as §1
# [26] = target: Gal(a1-3)[Gal(a1-4)]Gal(b1-4)GlcNAc
# In short: as §1
# [27] = target: Gal(a1-4)Gal(b1-3)GlcNAc(b1-2)Man(a1-3)[Gal(a1-4)Gal(b1-3)GlcNAc(b1-2)Man(a1-6)]Man(b1-4)GlcNAc(b1-4)GlcNAc
# In short: as §1
# Gal(a1-4)Gal(b1-4)Glc = target: Gal(a1-4)Gal(b1-4)Glc
# In short: as §1
# Gal(a1-4)Gal(b1-4)GlcNAc = target: Gal(a1-4)Gal(b1-4)GlcNAc
# In short: as §1
# [28] = target: Gal(a1-4)Gal(b1-4)GlcNAc(b1-2)Man(a1-3)[Gal(a1-4)Gal(b1-4)GlcNAc(b1-2)Man(a1-6)]Man(b1-4)GlcNAc(b1-4)GlcNAc
# In short: as §1
# [29] = target: Gal(a1-4)Gal(b1-4)GlcNAc(b1-3)Gal(b1-4)Glc
# In short: as §1
# Gal(a1-4)GlcNAc = target: Gal(a1-4)GlcNAc
# In short: as §1
# Gal(a1-6)Glc = target: Gal(a1-6)Glc
# In short: as §1
# Gal(b1-2)Gal = target: Gal(b1-2)Gal
# In short: as §1
# Gal(b1-3)Gal = target: Gal(b1-3)Gal
# In short: as §1
# Gal(b1-3)Gal(b1-4)GlcNAc = target: Gal(b1-3)Gal(b1-4)GlcNAc
# In short: as §1
# [30] = target: Gal(b1-3)Gal(b1-4)GlcNAc(b1-2)Man(a1-3)[Gal(b1-3)Gal(b1-4)GlcNAc(b1-2)Man(a1-6)]Man(b1-4)GlcNAc(b1-4)GlcNAc
# In short: as §1
binder,measurement,setting,value
B1,glycan array binding signal (z-score),[1],-0.438
same,glycan array binding signal (z-score),[2],-0.117
same,glycan array binding signal (z-score),[3],1.6
same,glycan array binding signal (z-score),[4],-0.564
same,glycan array binding signal (z-score),[5],-0.143
same,glycan array binding signal (z-score),[6],-0.43
same,glycan array binding signal (z-score),[7],0.249
same,glycan array binding signal (z-score),[8],-0.164
same,glycan array binding signal (z-score),[9],-0.08
same,glycan array binding signal (z-score),[10],-0.366
same,glycan array binding signal (z-score),[11],0.608
same,glycan array binding signal (z-score),[12],-0.229
same,glycan array binding signal (z-score),[13],-0.297
same,glycan array binding signal (z-score),[14],2.21
same,glycan array binding signal (z-score),Fuc(a1-4)GlcNAc,-0.334
same,glycan array binding signal (z-score),Fuc(b1-3)GlcNAc,-0.256
same,glycan array binding signal (z-score),Gal(a1-2)Gal,-0.233
same,glycan array binding signal (z-score),Gal(a1-3)Gal,-0.201
same,glycan array binding signal (z-score),Gal(a1-3)Gal(b1-3)GlcNAc,0.863
same,glycan array binding signal (z-score),[15],-0.239
same,glycan array binding signal (z-score),[16],0.146
same,glycan array binding signal (z-score),[17],-0.137
same,glycan array binding signal (z-score),[18],-0.384
same,glycan array binding signal (z-score),[19],0.023
same,glycan array binding signal (z-score),Gal(a1-3)Gal(b1-4)Glc,-0.155
same,glycan array binding signal (z-score),Gal(a1-3)Gal(b1-4)GlcNAc,-0.371
same,glycan array binding signal (z-score),[20],-0.173
same,glycan array binding signal (z-score),[21],-0.284
same,glycan array binding signal (z-score),[22],-0.286
same,glycan array binding signal (z-score),[23],-0.431
same,glycan array binding signal (z-score),[24],-0.392
same,glycan array binding signal (z-score),[25],0.305
same,glycan array binding signal (z-score),Gal(a1-3)GalNAc,-0.333
same,glycan array binding signal (z-score),[26],-0.218
same,glycan array binding signal (z-score),[27],-0.015
same,glycan array binding signal (z-score),Gal(a1-4)Gal(b1-4)Glc,-0.054
same,glycan array binding signal (z-score),Gal(a1-4)Gal(b1-4)GlcNAc,-0.262
same,glycan array binding signal (z-score),[28],-0.229
same,glycan array binding signal (z-score),[29],-0.227
same,glycan array binding signal (z-score),Gal(a1-4)GlcNAc,-0.387
same,glycan array binding signal (z-score),Gal(a1-6)Glc,-0.164
same,glycan array binding signal (z-score),Gal(b1-2)Gal,0.163
same,glycan array binding signal (z-score),Gal(b1-3)Gal,-0.21
same,glycan array binding signal (z-score),Gal(b1-3)Gal(b1-4)GlcNAc,-0.397
same,glycan array binding signal (z-score),[30],-0.404
